The IC50 comes from the fitted curve, where viability falls to half of the control; a limit (>, <) means that the fit lies beyond the doses tested. The AUC spans the tested range (256-fold, ending at the top dose) of the same fit; it is 1 without any effect and falls as sensitivity rises. For some of these results: A top dose marked as inferred is not printed in the source and was worked back from the curve model. For some of these results: Where an entry number is given, a second screen of the drug exists; the two often differ.
How the values were obtained:
Experiment in all cases: Viability of human cancer cell lines after 72 h of drug (GDSC screen)
CUDC-101 = compound: C#Cc1cccc(Nc2ncnc3cc(OC)c(OCCCCCCC(=O)NO)cc23)c1 [CUDC-101]; details: top dose 5.12 µM; top dose inferred
Method: (§1)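 Human cancer cell lines in 384-well plates, medium with 10% serum, drug for 72 h over a 256-fold dose range (nine 2-fold or five 4-fold steps up to the top dose). Adherent lines were fixed and stained with the nucleic acid dye Syto60, suspension lines read with resazurin; signal relative to control wells, capped at 0 and 100%. One two-parameter sigmoid per drug and line, fitted in a mixed model over all curves with the slope shared within a line.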

5-Fluorouracil = compound: O=c1[nH]cc(F)c(=O)[nH]1 [5-Fluorouracil]; details: top dose 32 µM; top dose inferred
Method: as §1

AC220 = compound: CC(C)(C)c1cc(NC(=O)Nc2ccc(-c3cn4c(n3)sc3cc(OCCN5CCOCC5)ccc34)cc2)no1 [AC220]; details: top dose 1.024 µM; top dose inferred
Method: as §1

RDEA119 = compound: COc1cc(F)c(F)c(Nc2ccc(I)cc2F)c1NS(=O)(=O)C1(C[C@H](O)CO)CC1 [RDEA119]; details: top dose 5 µM, top dose inferred
Method: as §1

OSU-03012 = compound: NCC(=O)Nc1ccc(-n2nc(C(F)(F)F)cc2-c2ccc3c(ccc4ccccc43)c2)cc1 [OSU-03012]; details: top dose 16 µM; top dose inferred
Method: as §1

JNK-9L = compound: Fc1cc(-c2ccnc(Nc3ccc(-n4cnc(N5CCOCC5)n4)cc3)n2)cc(N2CCOCC2)c1 [JNK-9L]; details: top dose 5.12 µM; top dose inferred
Method: as §1

QS11 = compound: OC[C@H](Cc1ccccc1)Nc1nc(Oc2ccc3c(c2)CCC3)nc2c1ncn2Cc1ccc(-c2ccccc2)cc1 [QS11]; details: top dose 10.24 µM
Method: as §1

Cell Line | AUC (CUDC-101) | IC50 (CUDC-101) | AUC (5-Fluorouracil) | IC50 (5-Fluorouracil) | AUC (AC220) | IC50 (AC220) | AUC (RDEA119; screen: GDSC drug entry 1014) | IC50 (RDEA119; screen: GDSC drug entry 1014) | AUC (RDEA119; screen: GDSC drug entry 1526) | IC50 (RDEA119; screen: GDSC drug entry 1526) | AUC (OSU-03012) | IC50 (OSU-03012) | AUC (JNK-9L) | IC50 (JNK-9L) | AUC (QS11) | IC50 (QS11)
CADO-ES1 (Ewing sarcoma, suspension) | 0.544 | 0.422 µM | 0.486 | 1.83 µM | 0.957 | > 1.02 µM | 0.984 | > 5 µM | 0.96 | > 5 µM |  |  |  |  |  | 
CHP-134 (neuroblastoma, suspension) | 0.384 | 0.141 µM | 0.509 | 2.13 µM | 0.955 | > 1.02 µM | 0.98 | > 5 µM |  |  |  |  |  |  |  | 
COR-L303 (small cell lung carcinoma, suspension) | 0.165 | 0.032 µM | 0.889 | > 32 µM | 0.981 | > 1.02 µM |  |  |  |  |  |  |  |  |  | 
COR-L321 (lung, suspension) | 0.16 | 0.0291 µM | 0.894 | > 32 µM | 0.948 | > 1.02 µM | 0.984 | > 5 µM | 0.987 | > 5 µM |  |  |  |  |  | 
D-423MG (glioma, adherent) | 0.463 | 0.247 µM | 0.826 | 25.3 µM | 0.976 | > 1.02 µM | 0.836 | 4.41 µM | 0.874 | > 5 µM |  |  |  |  |  | 
D-566MG (glioma, adherent) | 0.458 | 0.246 µM | 0.885 | > 32 µM | 0.982 | > 1.02 µM | 0.862 | 4.17 µM |  |  |  |  |  |  |  | 
DOV13 (ovary, adherent) | 0.966 | > 5.12 µM | 0.768 | 13.8 µM | 0.983 | > 1.02 µM | 0.723 | 1.5 µM | 0.776 | 2.32 µM |  |  |  |  |  | 
EMC-BAC-1 (lung adenocarcinoma, adherent) | 0.493 | 0.306 µM | 0.859 | > 32 µM | 0.969 | > 1.02 µM | 0.787 | 2.51 µM | 0.827 | 3.63 µM |  |  |  |  |  | 
EMC-BAC-2 (lung adenocarcinoma, adherent) | 0.545 | 0.433 µM | 0.862 | > 32 µM | 0.979 | > 1.02 µM | 0.638 | 0.808 µM | 0.798 | 2.91 µM |  |  |  |  |  | 
ESO26 (oesophagus, adherent) | 0.472 | 0.27 µM | 0.546 | 2.65 µM | 0.985 | > 1.02 µM | 0.922 | > 5 µM | 0.983 | > 5 µM |  |  |  |  |  | 
ESO51 (oesophagus, semi-adherent) | 0.659 | 1.07 µM | 0.598 | 4.16 µM | 0.98 | > 1.02 µM | 0.554 | 0.466 µM | 0.805 | 3.86 µM |  |  |  |  |  | 
Hey (ovary, adherent) | 0.452 | 0.239 µM | 0.562 | 2.93 µM | 0.988 | > 1.02 µM | 0.631 | 0.702 µM | 0.722 | 1.27 µM |  |  |  |  |  | 
JHOS-2 (ovary, adherent) | 0.524 | 0.377 µM | 0.916 | > 32 µM | 0.983 | > 1.02 µM | 0.528 | 0.377 µM | 0.671 | 1.02 µM |  |  |  |  |  | 
JHOS-3 (ovary, adherent) | 0.822 | 4.13 µM | 0.943 | > 32 µM | 0.953 | > 1.02 µM | 0.724 | 1.64 µM | 0.768 | 2.39 µM |  |  |  |  |  | 
KMS-11 (myeloma, suspension) | 0.519 | 0.358 µM | 0.876 | 24 µM | 0.981 | > 1.02 µM | 0.943 | > 5 µM | 0.966 | > 5 µM |  |  |  |  |  | 
KYAE-1 (oesophagus, suspension) | 0.632 | 0.772 µM | 0.825 | 21.9 µM | 0.824 | 0.699 µM | 0.886 | > 5 µM | 0.93 | > 5 µM |  |  |  |  |  | 
NCI-H1651 (lung adenocarcinoma, adherent) | 0.829 | 3.52 µM |  |  | 0.986 | > 1.02 µM | 0.959 | > 5 µM | 0.963 | > 5 µM | 0.711 | 4.15 µM | 0.654 | 0.885 µM | 0.939 | > 10.2 µM
NCI-H1876 (small cell lung carcinoma, adherent) | 0.462 | 0.251 µM |  |  | 0.983 | > 1.02 µM | 0.98 | > 5 µM | 0.974 | > 5 µM | 0.851 | 12.5 µM | 0.842 | 3.67 µM | 0.968 | > 10.2 µM
NCI-H1915 (large cell lung carcinoma, adherent) | 0.509 | 0.338 µM |  |  | 0.986 | > 1.02 µM |  |  | 0.633 | 0.732 µM | 0.866 | 14.7 µM | 0.597 | 0.595 µM | 0.971 | > 10.2 µM
NCI-H2087 (lung adenocarcinoma, semi-adherent) | 0.621 | 0.706 µM |  |  | 0.985 | > 1.02 µM | 0.756 | 1.82 µM | 0.744 | 1.67 µM | 0.729 | 4.76 µM | 0.505 | 0.331 µM | 0.942 | > 10.2 µM
NCI-H3122 (lung adenocarcinoma, adherent) | 0.624 | 0.71 µM |  |  | 0.984 | > 1.02 µM | 0.733 | 1.47 µM |  |  | 0.575 | 1.62 µM | 0.412 | 0.182 µM | 0.843 | 7.58 µM
OE33 (oesophagus, adherent) | 0.52 | 0.367 µM |  |  | 0.972 | > 1.02 µM | 0.88 | > 5 µM | 0.846 | 4.74 µM | 0.801 | 9.56 µM | 0.545 | 0.434 µM | 0.924 | > 10.2 µM
OVCAR-3 (ovary, adherent) | 0.978 | > 5.12 µM |  |  | 0.987 | > 1.02 µM | 0.953 | > 5 µM | 0.958 | > 5 µM | 0.861 | 15.9 µM | 0.586 |  | 0.977 | > 10.2 µM
OVCAR-4 (ovary, adherent) | 0.733 | 2.09 µM |  |  | 0.958 | > 1.02 µM | 0.833 | > 5 µM | 0.81 | 4.43 µM | 0.691 | 4.52 µM | 0.562 | 0.512 µM | 0.838 | > 10.2 µM

Reference: the supplement of paper PMC4967469
